Experimental data: PubChem BioAssay AID485294 (National Center for Advancing Translational Sciences (NCATS), 2010)
Screen size: about 370,000 compounds; about 150 (0.041%) were called active. The inconclusive results got no clear call from the source; some entries with a clear call stand among them for comparison. Calls come from the whole dose curve; as a rule, active = well fitted inhibition curve with a large enough effect; inconclusive = small, poorly fitted or top-dose-only effect; inactive = flat fitted curve, though single readings scatter. Potencies of inconclusive entries are left out as doubtful fits.

The compounds below were run against Beta-lactamase (Escherichia coli (strain K12)) (UniProt P00811) (assay: qHTS Inhibitors of AmpC Beta-Lactamase (assay with detergent)). Conditions: AmpC hydrolysis of nitrocefin, absorbance 480 nm, 0.01% Triton; activity change, negative = inhibition: at 114 µM (top of the series).
Sequence of UniProt P00811 (P00811 whole entry, looked up): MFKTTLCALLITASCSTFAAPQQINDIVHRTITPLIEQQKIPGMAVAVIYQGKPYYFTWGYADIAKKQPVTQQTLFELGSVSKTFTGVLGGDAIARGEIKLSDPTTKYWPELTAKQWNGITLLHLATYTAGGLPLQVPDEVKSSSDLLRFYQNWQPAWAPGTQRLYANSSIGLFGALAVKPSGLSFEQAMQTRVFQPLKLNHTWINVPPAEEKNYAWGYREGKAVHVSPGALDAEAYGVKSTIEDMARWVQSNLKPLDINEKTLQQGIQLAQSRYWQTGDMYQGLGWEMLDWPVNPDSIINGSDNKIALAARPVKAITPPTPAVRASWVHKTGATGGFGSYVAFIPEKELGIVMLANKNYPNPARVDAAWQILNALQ
Method in brief: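 20 mM phosphate pH 7.0 + 0.01% (detergent screen) or 0.0001% Triton X-100; 5.3 nM AmpC reagent; cpd preinc 15 min RT; nitrocefin (800 uM stock) to start; A480 q20 s × 4 min; Activity was normalised to no-enzyme and no-compound control wells.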
Note: nearly all actives have a fitted effect of over 25% in size.
Potency is the fitted concentration of half-maximal effect; tags give direction and shape of the fitted curve.
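Throughout, for activity change, negative = inhibition: 0% = no-compound wells and -100% = no-enzyme wells.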

| SMILES | Potency | activity change, negative = inhibition |
| --- | --- | --- |
| CCCCCSc1nnc(-c2ccccc2N)c(=O)[nH]1 | inconclusive [inhibitor, full curve, poor fit] |  |
| O=C(NCCCN1CCCC1)c1ccc2c(c1)N(Cc1ccc(F)cc1)C(=O)c1ccccc1S2=O (configuration not stated) | inconclusive [inhibitor, full curve, poor fit] |  |
| Nc1c(S(=O)(=O)c2ccccc2)c2nc3ccccc3nc2n1/N=C/c1cccc(O)c1 | inconclusive [inhibitor, full curve] |  |
| c1cc(-c2nnn(CCOCCn3nnc(-c4ccncc4)n3)n2)ccn1 |  | inactive: -8.36% |
| O=C(CSc1nccn1Cc1ccc(F)cc1)NC1CCCC1 | inconclusive [inhibitor, full curve, poor fit] |  |
| Cc1cccc(-n2ncc3c(NCc4ccccn4)ncnc32)c1 |  | inactive: 0.236% |
| O=S(=O)(Nc1ccc(-c2ccc(N3CCOCC3)nn2)cc1)c1ccc(Cl)c(Cl)c1 | inconclusive [inhibitor, full curve] |  |
| CC(=O)CSc1ccc(C(=O)O)cn1 | inconclusive [inhibitor, partial curve] |  |
| CCN(CC)S(=O)(=O)c1cccc(C(=O)Nc2cccnc2)c1 | inconclusive [inhibitor, full curve, poor fit] |  |
| N#CCc1nc(-c2cc3ccccc3oc2=O)cs1 |  | inactive: 1.46% |
| CC1(C)NS(=O)(=O)Oc2ccccc21 | inconclusive [inhibitor, partial curve, poor fit] |  |
| CCSc1ncc(Cl)c(C(=O)Nc2ccc(S(=O)(=O)N3CCCCC3CC)cc2)n1 (configuration not stated) |  | inactive: 21.3% |
| CC(C)CN(CCCNC(=O)CN1C(=O)COc2ccc(S(=O)(=O)N3CCCC3)cc21)CC(C)C |  | inactive: 1.06% |
| COc1cc(Cl)ccc1OCc1cc(C(=O)N2C[C@]3(C)C[C@H]2CC(C)(C)C3)no1 |  | inactive: 3.02% |
| COc1ccc(CCNC(=O)C(=O)NCC2CCCN2S(=O)(=O)c2ccccc2)cc1OC (configuration not stated) | inconclusive [inhibitor, partial curve, poor fit] |  |
| COc1ccc(-c2c(C)c3ccc(O)c(CN4CCCCC4C)c3oc2=O)cc1OC (configuration not stated) |  | inactive: 22.1% |
| COc1ccc(OC)c(/C=N/NC(=O)c2cc[n+](CC(=O)c3ccccc3)cc2)c1 | inconclusive [inhibitor, full curve, poor fit] |  |
| CCCNC(=O)c1cc2ccccc2c(=O)o1 | inconclusive [inhibitor, partial curve, poor fit] |  |
| Oc1ccccc1CNCCCNCc1ccccc1O | inconclusive [inhibitor, single point] |  |
| Cc1nnnn1/C(=C\c1ccccc1)C(=O)OCC(=O)NC1CCCCC1 | inconclusive [inhibitor, partial curve, poor fit] |  |
| Cc1cc(=O)oc2cc(OC(C)C(=O)NC3CCCC3)ccc12 (configuration not stated) | inconclusive [inhibitor, full curve, poor fit] |  |
| Cc1cc2c(s1)c1cnn(Cc3ccccc3F)c(=O)c1n2C | inconclusive [inhibitor, full curve, poor fit] |  |
| c1ccc(-n2cc(CN3CCCC3)c(-c3ccc4c(c3)OCO4)n2)cc1 | inconclusive [inhibitor, single point] |  |

| SMILES | Potency | activity change, negative = inhibition |
| --- | --- | --- |
| Cc1ccc(C(CC(=O)N2CCOCC2)c2ccco2)cc1 (configuration not stated) |  | inactive: -17.2% |
| CSC1=N/C(=C\c2cccc(F)c2)C(=O)S1 | inconclusive [inhibitor, full curve, poor fit] |  |
| COC(=O)c1ccccc1NC(=O)Nc1cccnc1 | inconclusive [inhibitor, full curve, poor fit] |  |
| CC(C)C(NS(=O)(=O)c1ccccc1F)C(=O)OCC(=O)NCc1ccco1 (configuration not stated) | inconclusive [inhibitor, partial curve, poor fit] |  |
| Cn1c(=O)[nH]c(=O)c2c1nc(SCCCO)n2CCCc1ccccc1 | inconclusive [inhibitor, full curve, poor fit] |  |
| O=C(c1cn(-c2ccccc2)nc1-c1cccnc1)N1CCCC(C(F)(F)F)C1 (configuration not stated) | inconclusive [inhibitor, full curve] |  |
| OCCN1CCN(C(=S)c2ccc(Br)cc2)CC1 | inconclusive [inhibitor, full curve, poor fit] |  |
| Cc1nc2ccccc2c(=O)n1NCc1cc(Br)cs1 | inconclusive [inhibitor, single point] |  |
| CCCOc1ccc(C(=O)Nc2cc(-c3nn4c(C)nnc4s3)ccc2C)cc1 | inconclusive [inhibitor, full curve] |  |
| NC(=O)CN1CCN(CCN2C(=O)c3cccc4cccc(c34)C2=O)CC1 | inconclusive [inhibitor, partial curve] |  |
| CCOC(=O)C1CCc2nc3ccccc3c(=O)n21 (configuration not stated) | inconclusive [inhibitor, full curve, poor fit] |  |
| CCOC(=O)C(CC(=O)c1ccccc1)CC(=O)c1ccccc1 |  | inactive: -0.866% |
| COc1ccc(N2CCN(S(=O)(=O)c3c[nH]c(=O)[nH]c3=O)CC2)cc1 | inconclusive [inhibitor, single point] |  |
| O=C(CN1C(=O)S/C(=C\c2ccc(-c3cc(C(=O)O)ccc3Cl)o2)C1=O)Nc1ccc2c(c1)OCO2 | active: 79.4 µM |  |
| O=C(CSc1nnc(Cc2ccccc2)c(=O)[nH]1)Nc1ccccc1 | inconclusive [inhibitor, full curve, poor fit] |  |
| N#CC1=C(S)N(c2ccccc2)C(c2ccc(-c3cc(Cl)ccc3Cl)o2)NC1=O (configuration not stated) |  | inactive: -15.2% |
| CC(C)C[C@H](NC(=O)Nc1cccc(Cl)c1)C(=O)O | inconclusive [inhibitor, full curve, poor fit] |  |
| O=C(Cc1csc(-c2ccccc2)n1)NCc1ccco1 |  | inactive: -13.5% |
| Cc1cccc(NC(=O)C2CCCN2C(=O)OCc2ccccc2)c1 (configuration not stated) |  | inactive: -1.59% |
| CCCCC(=O)Nc1nnc(S(=O)(=O)N2CCCc3ccccc32)s1 | inconclusive [inhibitor, full curve, poor fit] |  |
| Cc1cc(C)nc(NCc2ccc(Cl)cc2)n1 | inconclusive [inhibitor, full curve, poor fit] |  |
| Cc1cccc(C)c1NC(=O)CN(C)C(=O)c1ccccc1Cc1ccccc1 | inconclusive [inhibitor, partial curve, poor fit] |  |
| Cc1cc(Cl)c(S(=O)(=O)Nc2ccc3c(c2)OCCO3)cc1OCC(=O)NC1CCCCC1 | inconclusive [inhibitor, full curve, poor fit] |  |

| SMILES | Potency | activity change, negative = inhibition |
| --- | --- | --- |
| COc1ccc(CC(=O)Nc2c3c(nn2-c2cccc(C)c2C)CS(=O)C3)cc1 (configuration not stated) | inconclusive [inhibitor, partial curve, poor fit] |  |
| CN(C)S(=O)(=O)Oc1ccccc1C(=O)Nc1cccc(C(F)(F)F)c1 |  | inactive: -4.5% |
| CCOc1ccc(/C=N/OCC(=O)NC(c2ccccc2)c2ccccc2)cc1 |  | inactive: 0.638% |
| CCOc1cc(C(=O)OCC(=O)Nc2ccc(F)cc2Cl)ccc1OCC(=O)N1CCOCC1 | inconclusive [inhibitor, partial curve, poor fit] |  |
| CCc1ccc(/C=C2\Oc3cc(OC(=O)N4CCOCC4)ccc3C2=O)cc1 | inconclusive [inhibitor, full curve, poor fit] |  |
| COc1cccc(C(N)CC(=O)O)c1 (configuration not stated) | inconclusive [inhibitor, single point] |  |
| CCOc1ccc(NC(=O)C(=O)NCCc2csc3nc(-c4ccccc4F)nn23)cc1 | inconclusive [inhibitor, full curve, poor fit] |  |
| Cc1ccn2c(NC(=O)c3cccs3)c(-c3ccccc3)nc2c1 | inconclusive [inhibitor, full curve, poor fit] |  |
| Cc1nn(-c2ccccc2)c(N)c1N=Nc1ccc2ccccc2c1 |  | inactive: -6.16% |
| COCCN(C(=O)COC(=O)c1ccco1)c1c(N)n(Cc2ccccc2)c(=O)[nH]c1=O | inconclusive [inhibitor, full curve, poor fit] |  |
| CNS(=O)(=O)c1cccc(C(=O)OCC(=O)c2c(N)n(C)c(=O)n(C)c2=O)c1 |  | inactive: 3.82% |
| COc1ccc(C2C/C(=N\O)C(C)(C)O2)cc1 (configuration not stated) | inconclusive [inhibitor, partial curve] |  |
| O=C1CSc2ccc(C(=O)NCCC3=CCCCC3)cc2N1 | inconclusive [inhibitor, partial curve] |  |
| CC(C)C(NS(=O)(=O)/C=C/c1ccccc1)C(=O)NCc1ccc(F)cc1 (configuration not stated) |  | inactive: -8.57% |
| COc1ccccc1/C=C1\SC(=S)N(CCC(=O)NCCc2ccc(O)cc2)C1=O |  | inactive: -7.99% |
| CC(=O)c1cccc(N=Nc2c(C)[nH]c3ccccc23)c1 | inconclusive [inhibitor, single point] |  |
| Cc1ccc(/C=N/NC(=O)Cn2nc(C)c(Br)c2C)o1 | inconclusive [inhibitor, full curve, poor fit] |  |
| COc1cc(/C=N/NC(=O)CN(Cc2ccco2)S(=O)(=O)c2ccccc2)ccc1O | inconclusive [inhibitor, partial curve, poor fit] |  |
| C=C(C)Cc1c(C)c(C#N)c2[nH]c3ccccc3n2c1=O |  | inactive: -8.05% |
| CCCCC(=O)N/N=C/c1c(O)n(CC)c(=S)n(CC)c1=O | inconclusive [inhibitor, partial curve, poor fit] |  |
| CCOc1ccc2[nH]c(=O)c(CN(Cc3nnnn3Cc3ccccc3)CC3CCCO3)cc2c1 (configuration not stated) | inconclusive [inhibitor, partial curve, poor fit] |  |
